Source: patent US20260265359A1 (Hoffmann-La Roche, published 2026)
Where two headings read alike, the source gives them in different places.

T1: recombinant human VEGF-A165 (human, UniProt P15692-4 27-191)
T1 sequence (looked up): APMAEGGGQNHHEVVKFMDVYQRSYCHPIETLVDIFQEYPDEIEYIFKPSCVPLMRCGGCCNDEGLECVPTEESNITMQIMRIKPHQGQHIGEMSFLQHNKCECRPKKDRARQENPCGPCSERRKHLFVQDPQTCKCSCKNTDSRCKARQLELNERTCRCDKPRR

T2: recombinant human Ang-1 (human, UniProt Q15389 20-498, limits assumed)
T2 construct: also called Angiopoietin 1
T2 sequence (looked up): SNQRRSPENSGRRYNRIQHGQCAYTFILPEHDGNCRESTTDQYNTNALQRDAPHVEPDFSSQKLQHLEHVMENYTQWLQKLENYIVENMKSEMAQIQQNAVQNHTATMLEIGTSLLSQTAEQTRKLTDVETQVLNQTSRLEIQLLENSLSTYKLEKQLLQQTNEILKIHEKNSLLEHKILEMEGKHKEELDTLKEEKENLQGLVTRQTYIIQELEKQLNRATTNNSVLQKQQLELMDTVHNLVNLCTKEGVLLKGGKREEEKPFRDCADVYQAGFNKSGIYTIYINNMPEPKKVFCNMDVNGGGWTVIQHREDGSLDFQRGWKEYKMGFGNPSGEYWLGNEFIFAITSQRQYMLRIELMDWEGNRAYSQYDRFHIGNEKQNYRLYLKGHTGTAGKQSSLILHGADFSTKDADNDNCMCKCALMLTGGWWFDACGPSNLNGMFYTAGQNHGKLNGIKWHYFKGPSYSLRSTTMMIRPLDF

T3: recombinant human Ang-2 (human, UniProt O15123 19-496, limits assumed)
T3 construct: also called Angiopoietin-2; hAng-2
T3 sequence (looked up): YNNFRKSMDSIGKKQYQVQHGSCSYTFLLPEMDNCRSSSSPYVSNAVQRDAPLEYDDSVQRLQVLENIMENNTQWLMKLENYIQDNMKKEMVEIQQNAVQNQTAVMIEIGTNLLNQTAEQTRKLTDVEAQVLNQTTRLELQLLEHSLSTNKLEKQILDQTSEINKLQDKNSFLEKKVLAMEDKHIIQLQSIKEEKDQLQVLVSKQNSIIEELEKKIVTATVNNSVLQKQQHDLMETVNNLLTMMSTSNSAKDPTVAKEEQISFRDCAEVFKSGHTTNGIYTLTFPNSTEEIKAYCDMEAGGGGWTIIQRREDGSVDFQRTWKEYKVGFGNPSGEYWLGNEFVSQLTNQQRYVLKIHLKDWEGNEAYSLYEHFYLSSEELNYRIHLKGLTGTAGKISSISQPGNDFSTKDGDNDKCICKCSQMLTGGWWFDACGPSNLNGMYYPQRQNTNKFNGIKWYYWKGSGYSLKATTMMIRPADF

T4: recombinant human PIGF (human, UniProt P49763-2 19-149, limits assumed)
T4 construct: also called PlGF; placental growth factor
T4 sequence (looked up): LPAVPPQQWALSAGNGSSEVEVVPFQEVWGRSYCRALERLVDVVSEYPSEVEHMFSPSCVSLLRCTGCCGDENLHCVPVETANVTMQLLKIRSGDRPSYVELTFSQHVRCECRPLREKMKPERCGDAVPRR

T5: recombinant human IL-6R (human, UniProt P08887 20-365, limits assumed)
T5 construct: Recombinant protein used in ELISA and as SPR analyte; also called hIL-6R
T5 sequence (looked up): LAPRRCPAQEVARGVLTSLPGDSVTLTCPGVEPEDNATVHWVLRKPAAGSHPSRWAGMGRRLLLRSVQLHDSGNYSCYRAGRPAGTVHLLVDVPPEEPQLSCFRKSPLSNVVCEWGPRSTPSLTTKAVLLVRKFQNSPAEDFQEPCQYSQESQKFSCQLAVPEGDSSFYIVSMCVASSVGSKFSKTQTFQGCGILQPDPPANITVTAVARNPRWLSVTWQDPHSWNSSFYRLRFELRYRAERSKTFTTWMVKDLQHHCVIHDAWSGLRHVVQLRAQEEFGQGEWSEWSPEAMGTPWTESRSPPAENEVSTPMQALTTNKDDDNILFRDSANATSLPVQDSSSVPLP

T6: recombinant human VEGF-B167 (human, UniProt P49765-2 22-188)
T6 sequence (looked up): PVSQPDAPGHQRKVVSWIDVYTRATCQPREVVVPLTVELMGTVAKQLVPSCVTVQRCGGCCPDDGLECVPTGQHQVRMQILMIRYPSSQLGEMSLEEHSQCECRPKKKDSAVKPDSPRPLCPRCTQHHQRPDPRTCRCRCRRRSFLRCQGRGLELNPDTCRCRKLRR

B1: EB-105BI-10C (other)
heavy: QVQLQESGPGLVRPSQTLSLTCTVSGYSITSDHAWSWVRQPPGRGLEWIGYISYSGITTYNPSLKSRVTMLRDTSKNQFSLRLSSVTAADTAVYYCARSLARTTAMDYWGQGSLVTVSSASTKGPSVFPLAPSSKSTSGGTAALGCLVKDYFPEPVTVSWNSGALTSGVHTFPAVLQSSGLYSLSSVVTVPSSSLGTQTYICNVNHKPSNTKVDKKV[human IgG1 Fc skipped]GGSGGGGSGGGGSMGAQQKFQPLDELEQTLYEQFMLQQALE
light: SDTGRPFVEMYSEIPEIIHMTEGRELVIPCRVTSPNITVTLKKFPLDTLIPDGKRIIWDSRKGFIISNATYKEIGLLTCEATVNGHLYKTNYLTHRQTNTIIDVVLSPSHGIELSVGEKLVLNCTARTELNVGIDFNWEYPSSKHQHKKLVNRDLKTQSGSEMKKFLSTLTIDGVTRSDQGLYTCAASSGLMTKKNSTFVRVHEKDIQMTQSPSSLSASVGDRVTITCRASQDISSYLNWYQQKPGKAPKLLIYYTSRLHSGVPSRFSGSGSGTDFTFTISSLQPEDIATYYCQQGNTLPYTFGQGTKVEIKRTVAAPSVFIFPPSDEQLKSGTASVVCLLNNFYPREAKVQWKVDNALQSGNSQESVTEQDSKDSTYSLSSTLTLSKADYEKHKVYACEVTHQGLSSPVTKSFNRGEC
notes: Trispecific antibody fusion protein, first embodiment; also called B21138003
B2: EB-105BI-21C (other)
heavy: QVQLQESGPGLVRPSQTLSLTCTVSGYSITSDHAWSWVRQPPGRGLEWIGYISYSGITTYNPSLKSRVTMLRDTSKNQFSLRLSSVTAADTAVYYCARSLARTTAMDYWGQGSLVTVSSASTKGPSVFPLAPSSKSTSGGTAALGCLVKDYFPEPVTVSWNSGALTSGVHTFPAVLQSSGLYSLSSVVTVPSSSLGTQTYICNVNHKPSNTKVDKKV[human IgG1 Fc skipped]GGSGGGGSGGGGSMGAQHTFQPLDELEETLYYQWLYDQLLE
light: SDTGRPFVEMYSEIPEIIHMTEGRELVIPCRVTSPNITVTLKKFPLDTLIPDGKRIIWDSRKGFIISNATYKEIGLLTCEATVNGHLYKTNYLTHRQTNTIIDVVLSPSHGIELSVGEKLVLNCTARTELNVGIDFNWEYPSSKHQHKKLVNRDLKTQSGSEMKKFLSTLTIDGVTRSDQGLYTCAASSGLMTKKNSTFVRVHEKDIQMTQSPSSLSASVGDRVTITCRASQDISSYLNWYQQKPGKAPKLLIYYTSRLHSGVPSRFSGSGSGTDFTFTISSLQPEDIATYYCQQGNTLPYTFGQGTKVEIKRTVAAPSVFIFPPSDEQLKSGTASVVCLLNNFYPREAKVQWKVDNALQSGNSQESVTEQDSKDSTYSLSSTLTLSKADYEKHKVYACEVTHQGLSSPVTKSFNRGEC
notes: Trispecific antibody fusion protein, first embodiment; also called B21138006
B3: EB-105BI-Con4-40CA (other)
heavy: QVQLQESGPGLVRPSQTLSLTCTVSGYSITSDHAWSWVRQPPGRGLEWIGYISYSGITTYNPSLKSRVTMLRDTSKNQFSLRLSSVTAADTAVYYCARSLARTTAMDYWGQGSLVTVSSASTKGPSVFPLAPSSKSTSGGTAALGCLVKDYFPEPVTVSWNSGALTSGVHTFPAVLQSSGLYSLSSVVTVPSSSLGTQTYICNVNHKPSNTKVDKKV[human IgG1 Fc skipped]GGSGGGGSGGGGSAQTNIQEECEWDPWTCDHMPGKLE
light: SDTGRPFVEMYSEIPEIIHMTEGRELVIPCRVTSPNITVTLKKFPLDTLIPDGKRIIWDSRKGFIISNATYKEIGLLTCEATVNGHLYKTNYLTHRQTNTIIDVVLSPSHGIELSVGEKLVLNCTARTELNVGIDFNWEYPSSKHQHKKLVNRDLKTQSGSEMKKFLSTLTIDGVTRSDQGLYTCAASSGLMTKKNSTFVRVHEKDIQMTQSPSSLSASVGDRVTITCRASQDISSYLNWYQQKPGKAPKLLIYYTSRLHSGVPSRFSGSGSGTDFTFTISSLQPEDIATYYCQQGNTLPYTFGQGTKVEIKRTVAAPSVFIFPPSDEQLKSGTASVVCLLNNFYPREAKVQWKVDNALQSGNSQESVTEQDSKDSTYSLSSTLTLSKADYEKHKVYACEVTHQGLSSPVTKSFNRGEC
notes: Trispecific antibody fusion protein, first embodiment; also called B21138008
B4: EB-105BI-Con4-40CB (other)
heavy: QVQLQESGPGLVRPSQTLSLTCTVSGYSITSDHAWSWVRQPPGRGLEWIGYISYSGITTYNPSLKSRVTMLRDTSKNQFSLRLSSVTAADTAVYYCARSLARTTAMDYWGQGSLVTVSSASTKGPSVFPLAPSSKSTSGGTAALGCLVKDYFPEPVTVSWNSGALTSGVHTFPAVLQSSGLYSLSSVVTVPSSSLGTQTYICNVNHKPSNTKVDKKV[human IgG1 Fc skipped]GGSGGGGSAQTNIQEECEWDPWTCDHMPGKLE
light: SDTGRPFVEMYSEIPEIIHMTEGRELVIPCRVTSPNITVTLKKFPLDTLIPDGKRIIWDSRKGFIISNATYKEIGLLTCEATVNGHLYKTNYLTHRQTNTIIDVVLSPSHGIELSVGEKLVLNCTARTELNVGIDFNWEYPSSKHQHKKLVNRDLKTQSGSEMKKFLSTLTIDGVTRSDQGLYTCAASSGLMTKKNSTFVRVHEKDIQMTQSPSSLSASVGDRVTITCRASQDISSYLNWYQQKPGKAPKLLIYYTSRLHSGVPSRFSGSGSGTDFTFTISSLQPEDIATYYCQQGNTLPYTFGQGTKVEIKRTVAAPSVFIFPPSDEQLKSGTASVVCLLNNFYPREAKVQWKVDNALQSGNSQESVTEQDSKDSTYSLSSTLTLSKADYEKHKVYACEVTHQGLSSPVTKSFNRGEC
notes: Trispecific antibody fusion protein, first embodiment; also called B21138009

Legend:
[1] = molecular target: T1, recombinant human VEGF-A165; assay: ELISA on plate-coated recombinant human VEGF-A165; anti-human IgG1-Fc-HRP, OD450
Description: (§1) After non-specific blocking using 1% BSA at 25° C. for 1 hour, a series of dilutions of test antibodies (“Abs”) were added into the coated wells and incubated at 25° C. for 1 hour. The bound Abs were detected using a secondary Ab (goat anti-human IgG1-Fc) conjugated with HRP followed by OD₄₅₀ reading.

recombinant human Ang-1 = molecular target: T2, recombinant human Ang-1; assay: ELISA on plate-coated recombinant human Ang-1; anti-human IgG1-Fc-HRP, OD450
Description: as §1
The same ELISA procedure was performed with recombinant human Ang-1.

recombinant human Ang-2 [2] = molecular target: T3, recombinant human Ang-2; assay: ELISA on plate-coated recombinant human Ang-2; anti-human IgG1-Fc-HRP, OD450
Description: as §1

recombinant human PIGF = molecular target: T4, recombinant human PIGF; assay: ELISA on plate-coated recombinant human PIGF; anti-human IgG1-Fc-HRP, OD450
Description: as §1

recombinant human IL-6R = molecular target: T5, recombinant human IL-6R; assay: ELISA on plate-coated recombinant human IL-6R; anti-human IgG1-Fc-HRP, OD450
Description: as §1
The same ELISA procedure was performed with recombinant human IL-6R. […] Vobarilizumab is a single domain antibody against IL-6R. B781402 and B781405 are bispecific fusion antibodies that inhibit VEGF-A, B, PIGF and IL-6R.

[3] = molecular target: T6, recombinant human VEGF-B167; assay: ELISA on plate-coated recombinant human VEGF-B167; anti-human IgG1-Fc-HRP, OD450
Description: as §1

[4] = molecular target: T1, recombinant human VEGF-A165; assay: cell-based or functional assay
recombinant human Ang-2 [5] = molecular target: T3, recombinant human Ang-2; assay: ELISA on plate-coated recombinant human Ang-2; anti-human IgG1-Fc-HRP, OD450; remark: listed apart in the source
Description: as §1

[6] = molecular target: T1, recombinant human VEGF-A165; assay: cell-based or functional assay; remark: listed apart in the source

Binder | EC50 [1] | EC50 (recombinant human Ang-1) | EC50 (recombinant human Ang-2 [2]) | EC50 (recombinant human PIGF) | EC50 (recombinant human IL-6R) | EC50 [3] | IC50, inhibition of VEGF-A165-stimulated VEGFR-2 NF-AT luciferase reporter (HEK-293), luminescence [4] | EC50 (recombinant human Ang-2 [5]) | IC50, inhibition of VEGF-A165-stimulated VEGFR-2 NF-AT luciferase reporter (HEK-293), luminescence [6]
B1 | 0.062 nM | 15.4 nM | 0.205 nM | 0.047 nM | 0.091 nM | 0.044 nM | 0.595 nM | 0.23 nM | 
B2 | 0.091 nM | 10.6 nM | 0.206 nM | 0.086 nM | 0.211 nM | 0.073 nM |  |  | 0.638 nM
B3 | 0.088 nM | 2.27 nM | 0.146 nM | 0.054 nM | 0.103 nM | 0.044 nM |  |  | 0.544 nM
B4 | 0.072 nM | 4.22 nM | 0.113 nM | 0.061 nM | 0.031 nM | 0.01 nM |  |  | 0.594 nM
